Assay results as given in patent US20260232829A1 (CYTOSPIRE THERAPEUTICS, published 2026).

T1: Human IL-15R beta/CD122 Protein, His Tag (Acro Biosystems CD2-H5221) (human, UniProt P14784 27-239)
T1 construct: Bought recombinant protein with a His tag; also called Human IL-15Rβ protein; IL-15 receptor beta-His
T1 sequence (looked up): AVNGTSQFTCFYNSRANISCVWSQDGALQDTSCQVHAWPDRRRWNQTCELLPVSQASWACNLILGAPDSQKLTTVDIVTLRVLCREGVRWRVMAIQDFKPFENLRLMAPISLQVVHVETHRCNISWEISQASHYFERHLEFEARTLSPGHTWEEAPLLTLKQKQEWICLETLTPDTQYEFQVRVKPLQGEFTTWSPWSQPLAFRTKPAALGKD

T2: Human his-tagged NKG2D/CD314 (Acro Biosystems, NKD-H5245) (human, UniProt P26718 78-216, limits assumed)
T2 construct: Bought recombinant protein with a His tag; also called Human NKG2D-His protein; NKG2D-His
T2 sequence (looked up): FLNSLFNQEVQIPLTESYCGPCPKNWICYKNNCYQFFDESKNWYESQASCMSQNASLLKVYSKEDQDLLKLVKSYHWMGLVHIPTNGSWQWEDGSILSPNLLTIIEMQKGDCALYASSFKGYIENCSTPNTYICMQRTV


Legend:
[1] = target: T1, Human IL-15R beta/CD122 Protein, His …; test: SPR (Biacore), molecule captured on anti-human IgG Fc chip, antigen as analyte, 1:1 Langmuir fit
Description: In brief, the test molecules were first immobilized on a goat anti-human IgG (Fc specific) antibody plated on a Biacore CM5 Series S sensor chip (CFJB1172, Cytiva Cat No. 29149603) by injection at 5 nM at flow rate 30 ul/min. […] The quality of the fits was assessed by visual inspection.

[2] = target: T1, Human IL-15R beta/CD122 Protein, His …; test: SPR avidity format, antigen immobilised on CM5 chip, test molecule injected as analyte; avidity format of Table 6 (Example 6)
Description: (§1) In order explore avidity binding effects (rather than affinity), a different assay orientation was employed. Specifically, the recombinant target human antigens (NKG2D-His or IL-15 receptor beta-His antigens, see Example 5) were immobilized on CM5 Series S sensor chips (Cytiva, catalogue number 29149603). […] Irrelevant mAbs were employed to determine and subtract background. As previously (Example 5), standard regeneration solutions and buffers were employed. To determine and compare avidity effects, test molecules were the injected in stepwise serial dilutions and sensogram responses generated.

[3] = target: T2, Human his-tagged NKG2D/CD314 (Acro …); test: SPR avidity format, antigen immobilised on CM5 chip, test molecule injected as analyte
Description: as §1

Row | Kd [1] | Kd [2] | Kd [3] | Binder
1 | 3.9 nM | – | – | CYTB15 (other, Immunocytokine, Format A: anti-NKp30 IgG1 (H12/L12) with sushi-IL-15 at the C-terminus of each heavy chain) heavy: EIQLLESGGGLVQPGGSLRLSCAVSGFSITTTGYHWNWVRQAPGKGLEWVGYIYSSGSTSYNPSLKSRFTISRDTSKNTFYLQMNSLRAEDTAVYYCARGDWHYFDYWGQGTMVTVSS[human IgG1 constant region omitted here]GGSITCPPPMSVEHADIWVKSYSLYSRERYICNSGFKRKAGTSSLTECVLNKATNVAHWTTPSLKCIRGGGGSGGGSGGGGS[about 120 residues omitted here] light: DSVTTQSPLSLPVTLGQPASISCSGEKLSDKYVHWYQQRPGQSPRMLIYENDRRPSGVPDRFSGSNSGNDATLKISRVEAEDVGVYFCQFWDSTNSAVFGGGTKVEIKRTVAAPSVFIFPPSDEQLKSGTASVVCLLNNFYPREAKVQWKVDNALQSGNSQESVTEQDSKDSTYSLSSTLTLSKADYEKHKVYACEVTHQGLSSPVTKSFNRGEC
2 | – | 86.7 nM | 4.5 nM | CYTB27 (other, Comparator, Format F: single chain, monovalent for NKG2D and IL-15 receptor beta) QVQLVESGGGLVKPGGSLRLSCAASGFTFSSYGMHWVRQAPGKGLEWVAFIRYDGSNKYYADSVKGRFTISRDNSKNTLYLQMNSLRAEDTAVYYCAKDRGLGDGTYFDYWGQGTTVTVSSGGGGSGGGGSGGGGSGGGGSQSALTQPASVSGSPGQSITISCSGSSSNIGNNAVNWYQQLPGKAPKLLIYYDDLLPSGVSDRFSGSKSGTSAFLAISGLQSEDEADYYCAAWDDSLNGPVFGGGTKLTVLGGSSGSSGSSHHHHHHHHGGSSGSSGSS[about 120 residues omitted here]
3 | 2.7 nM | – | – | CYTB16 (other, Immunocytokine, Format A: anti-NKp46 IgG1 (H13/L13) with sushi-IL-15 at the C-terminus of each heavy chain; also called CYT16) heavy: QVQLQQSGPELVKPGASVKMSCKASGYTFTDYVINWGKQRSGQGLEWIGEIYPGSGTNYYNEKFKAKATLTADKSSNIAYMQLSSLTSEDSAVYFCARRGRYGLYAMDYWGQGTSVTVSS[human IgG1 constant region omitted here]GGSITCPPPMSVEHADIWVKSYSLYSRERYICNSGFKRKAGTSSLTECVLNKATNVAHWTTPSLKCIRGGGGSGGGSGGGGS[about 120 residues omitted here] light: DIQMTQTTSSLSASLGDRVTISCRASQDISNYLNWYQQKPDGTVKLLIYYTSRLHSGVPSRFSGSGSGTDYSLTINNLEQEDIATYFCQQGNTRPWTFGGGTKLEIKRTVAAPSVFIFPPSDEQLKSGTASVVCLLNNFYPREAKVQWKVDNALQSGNSQESVTEQDSKDSTYSLSSTLTLSKADYEKHKVYACEVTHQGLSSPVTKSFNRGEC
